Test results from publication PMC4336329 (PLoS ONE, 2015).
The campaign covered roughly 310,000 compounds. About 2,200 (0.71%) showed an effect of 50% or more. The effect is printed as a negative number. This is one part of the list.

The compounds below were run against human ether-à-go-go-related gene (hERG) potassium channel (human, UniProt Q12809) (assay: primary screen, population patch clamp on CHO cells stably expressing hERG).
human ether-à-go-go-related gene (hERG) potassium channel, sequence (Q12809 whole entry, looked up): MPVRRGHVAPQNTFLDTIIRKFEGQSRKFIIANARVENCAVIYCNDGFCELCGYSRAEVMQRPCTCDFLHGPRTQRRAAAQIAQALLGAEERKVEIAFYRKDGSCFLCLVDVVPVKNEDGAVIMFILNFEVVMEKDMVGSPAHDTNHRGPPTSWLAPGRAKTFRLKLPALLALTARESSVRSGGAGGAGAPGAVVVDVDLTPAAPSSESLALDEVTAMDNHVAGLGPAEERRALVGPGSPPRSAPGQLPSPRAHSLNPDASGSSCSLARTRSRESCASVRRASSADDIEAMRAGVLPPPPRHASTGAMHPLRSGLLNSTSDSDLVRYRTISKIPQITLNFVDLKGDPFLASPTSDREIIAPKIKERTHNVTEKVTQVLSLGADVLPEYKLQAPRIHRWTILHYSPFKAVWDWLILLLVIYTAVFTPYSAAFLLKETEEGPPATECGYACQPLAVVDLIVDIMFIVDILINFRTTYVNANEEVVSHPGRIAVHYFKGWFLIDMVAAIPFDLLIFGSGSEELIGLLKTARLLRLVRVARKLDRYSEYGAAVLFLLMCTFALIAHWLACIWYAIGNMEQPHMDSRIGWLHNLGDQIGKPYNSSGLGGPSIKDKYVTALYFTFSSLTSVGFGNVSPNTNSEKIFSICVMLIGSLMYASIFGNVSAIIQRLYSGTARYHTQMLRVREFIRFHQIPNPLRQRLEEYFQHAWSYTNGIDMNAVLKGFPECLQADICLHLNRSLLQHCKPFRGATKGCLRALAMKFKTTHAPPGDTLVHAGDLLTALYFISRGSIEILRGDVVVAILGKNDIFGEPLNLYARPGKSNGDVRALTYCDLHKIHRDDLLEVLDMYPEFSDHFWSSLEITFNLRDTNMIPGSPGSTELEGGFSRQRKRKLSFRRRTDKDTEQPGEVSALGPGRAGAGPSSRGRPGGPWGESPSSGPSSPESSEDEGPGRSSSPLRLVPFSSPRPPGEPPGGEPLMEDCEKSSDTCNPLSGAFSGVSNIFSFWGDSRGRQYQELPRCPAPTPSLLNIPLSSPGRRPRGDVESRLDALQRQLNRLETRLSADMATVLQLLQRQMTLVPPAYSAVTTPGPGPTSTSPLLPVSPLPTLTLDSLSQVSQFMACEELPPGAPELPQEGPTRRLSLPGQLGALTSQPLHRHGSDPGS

Compound | hERG current change (%, negative = inhibition) at 1uM [%]
Cc1ccc(S(=O)(=O)NCCCC(=O)N2CCC(C)CC2)cc1 | 11.6
O=C(O)C(=O)O.OCCN(Cc1ccccc1)Cc1ccccc1O | 10.7
CC(C)(Oc1ccc(CCNC(=O)c2ccc(-c3ccc(Cl)cc3)o2)cc1)C(=O)O | 14
Cc1ccc(NC(=O)CCC(=O)N/N=C/c2coc3ccc(F)cc3c2=O)cc1 | 6.01
COc1ccc(NC(=O)c2ccccc2SC)cc1OC | -1.65
CCOC(=O)N1CCN(C(=O)c2c(-c3ccccc3Cl)noc2C)CC1 | 10.4
COC(=O)c1cc(C(=O)OC)cc(-n2c(C)cc(C(=O)COC(=O)CNS(=O)(=O)c3ccc(C)cc3)c2C)c1 | 4.44
COc1cc(/C=C(/C#N)C(=O)Nc2ccccc2)ccc1OCc1ccc(C(=O)O)cc1 | 7.51
O=C(COC(=O)C1CCC(N2C(=O)C3C4CCC(C4)C3C2=O)CC1)c1ccc(F)cc1 (centres unmarked) | 5.18
O=C(NCc1ccc2c(c1)OCO2)c1ccc(COc2cc(Cl)ccc2Cl)o1 | 15.7
CCNC(=O)c1c(C)nc2ccccn12 | -5.23
COC(=O)c1ccccc1OCC(=O)N1CCN(c2ccc(Cl)cc2)CC1 | -6.4
COc1ccccc1CNC(=O)COC(=O)c1ccc([N+](=O)[O-])o1 | 8.33
COC(=O)/C=C1/S/C(=N/NC(=O)c2ccccc2C)NC1=O | 9.87
N#CCCN(C(=O)COC(=O)CCc1c[nH]c2ccccc12)c1ccc(F)cc1 | 4.81
CN1CCN(S(=O)(=O)c2cccc(C(=O)NCc3ccc(Cl)cc3)c2)CC1 | 5.17
O=C(Nc1ccc2[nH]c(=O)[nH]c2c1)c1c(F)c(F)c(F)c(F)c1F | 14.1
CCCC(=O)NC(=S)Nc1ccc(Cl)cn1 | 11.2
Cc1nonc1NC(=O)CSc1nc(C23CC4CC(CC(C4)C2)C3)nc2ccccc12 | 14.9
O=C(NCC1(c2ccccc2)CCCC1)c1ccccc1Br | 6.88
COc1ccc(CCNC(=O)C2CCN(S(=O)(=O)N3CCCCCC3)CC2)cc1OC | -0.0748
COc1ccc(CN2C[C@H](Cc3ccccc3)[C@@H](CC(=O)Nc3ccccc3)C2=O)cc1 | 6.62

Compound | hERG current change (%, negative = inhibition) at 1uM [%]
CCCC1(C(=O)O)NC(c2ccccc2O)C2C(=O)N(Cc3ccccc3)C(=O)C21 (centres unmarked) | 3.09
Cc1ccnc(NS(=O)(=O)c2ccc(NC(=O)CN3C(=O)c4ccccc4S3(=O)=O)cc2)n1 | 4.28
N#Cc1ccccc1S(=O)(=O)N1CCN(C(=O)CCc2ccccc2)CC1 | -4.28
COC(=O)c1nnn(CC(=O)Nc2cccc(Cl)c2)c1C(=O)OC | 5.31
COc1ccc(/C=C(\C#N)C(=O)NC2CCS(=O)(=O)C2)cc1OC (centres unmarked) | 18.5
COC(=O)c1cc(/C=C/c2ccccc2)on1 | 11.5
COc1cc(C(=O)Nc2ccc3c(c2)OCCO3)c(-n2cnnn2)cc1OC | -0.364
COc1cccc(/C=C/C(=O)NCc2cn3cc(Cl)ccc3n2)c1 | 8.22
COc1ccc(N2CCN(Cc3nc4c(c(=O)n(C)c(=O)n4C)n3Cc3cccc(C)c3)CC2)cc1 | 5.12
Cc1cccc(Nc2nc(N)nc(CN3CCN(c4ccc(F)cc4)CC3)n2)c1 | -34.7
CCOCCN1CCN(C2c3ccccc3CSc3ccccc32)CC1.O=C(O)C(=O)O (centres unmarked) | 4.02
CCCCn1c(N)c(N(CCOC)C(=O)CN(C)S(=O)(=O)c2ccc(F)cc2)c(=O)[nH]c1=O | 2.86
CSc1ccccc1OC1CCN(Cc2ccccc2)CC1.Cl | -3.71
C/C(=N\Nc1nccnc1Cl)c1ccc(O)c(C)c1 | 13
CC(/C=N/NC(=O)CSc1ccccn1)=C\c1ccc(C(C)C)cc1 | -1.33
CCOC(=O)CC1=NN(c2ccccc2)C(=O)/C1=C\c1ccc(N(C)C)cc1 | 13.3
O=C1CSC(c2ccccc2O)N1Cc1ccccc1 (centres unmarked) | 9.42
Cc1ccc(C(=O)n2cnnc2N)cc1C | 4.37
O=C(CCN1C(=O)S/C(=C/c2ccccc2)C1=O)Nc1ccc(C(=O)O)c(O)c1 | 19.5
c1ccc(Oc2cc(-c3ccccc3)ncn2)cc1 | -0.547
O=C(c1ccc(Cl)cc1)C1CCCN(Cc2ccc3nonc3c2)C1 (centres unmarked) | 0.831
Cc1ccccc1NC(=O)c1c(C)nn(-c2ccccc2)c1Cl | -0.531

Compound | hERG current change (%, negative = inhibition) at 1uM [%]
O=C(O)c1cc(S(=O)(=O)N2CCCCC2)ccc1Cl | 1.04
Cc1csc2c(=O)n(CCO)c(=O)[nH]c12 | 9.48
CC(C)(CNS(C)(=O)=O)SCc1ccc(Cl)cc1 | 7.7
COc1ccc(N2CCN(C(=O)CCC(=O)N3Cc4ccccc4Oc4ncccc43)CC2)cc1 | 0.308
Cc1ccccc1Nc1nc(Cl)c(C=O)s1 | 7.79
Cc1ccc2cc(CN(CC3CCCO3)C(=S)Nc3ccccc3)c(=O)[nH]c2c1 (centres unmarked) | 6.84
CCOC(=O)CC(=O)Nc1nnc(CC(C)C)s1 | 6.93
Cc1ccccc1CNC(=O)C1CCN(c2nnc(N3CCCC3=O)s2)CC1 | 14.6
Cc1cc(C(=O)c2ccccc2)c(NC(=O)CCl)s1 | 15.2
Cc1cccc(-c2noc(CN(C(=O)C(c3ccccc3)c3ccccc3)C(C)C)n2)c1 | 2.52
CCOc1cc(S(=O)(=O)N2CCN(Cc3ccccc3)CC2)ccc1Br | 6.73
CN1/C(=C\C(=O)Nc2ccc(Cl)cc2)C(C)(C)c2ccccc21 | 13.4
Cc1ccc(-n2c(-c3ccco3)nc3c(cnn3-c3ccc(C)cc3)c2=O)cc1 | 15.3
O=C1c2ccccc2C(=O)N1OCc1ccc(Cl)cc1 | 8.72
COc1cc2cc(C#N)c(SCC(=O)N3CCOCC3)nc2cc1OC | 11.1
O=C(Nc1ccccc1)C1CC(=O)N(c2ccc3c4c(cccc24)CC3)C1 (centres unmarked) | 12
CCOc1ccc(NC(C(=O)Nc2cccc(C(C)=O)c2)c2ccccc2)cc1 (centres unmarked) | -2.99
CCOc1ccc(NC(=O)c2ccccc2OC)cc1 | 14.6
Cc1ccc(=O)n(-c2ccccc2)c1 | 4
CCC(C(=O)NCCCN1CC(C)CC(C)C1)n1ncn2c(cc3occc32)c1=O (centres unmarked) | 7.26
Nc1c(C(=O)NCc2ccc(F)cc2)c2nc3ccccc3nc2n1CCCN1CCOCC1 | 15.3
Cc1ccsc1/C=N/NC(=O)c1ccc2c(c1)OCCO2 | 13.3

Compound | hERG current change (%, negative = inhibition) at 1uM [%]
O=C(NNC(=O)c1nc(Cl)ccc1Cl)c1ccc(F)cc1 | 4.11
COc1ccc(C2c3[nH]c4ccccc4c3CCN2Cc2cccn2-c2ncccn2)cc1C (centres unmarked) | 8.42
Cn1ccnc1SCC(=O)c1cccc(C(F)(F)F)c1 | -16.9
COc1ccc(CCNC(=S)Nc2cc(C)cc(C)c2)cc1 | 3.09
Cc1ccnc(NC(=O)c2ccc(Cl)c([N+](=O)[O-])c2)c1 | 9.32
COc1ccc2oc(C(=O)OCC(=O)N(C)C3CCS(=O)(=O)C3)c(C)c2c1 (centres unmarked) | 4.33
O=C1C2C3C=CC(C3)C2C(=O)N1Nc1ccc([N+](=O)[O-])cc1[N+](=O)[O-] (centres unmarked) | 6.79
N#C/C(=N\[O-])c1nc(-c2ccccc2)cs1.[K+] | 1.39
O=C(/C=C\c1cn(-c2ccccc2)nc1-c1ccc2c(c1)OCCO2)N1CCOCC1 | 9.09
OCC[C@@H]1C[C@H](O)[C@@H](O)[C@]2(OCCc3ccccc32)O1 | 19
CNC(=S)Nc1ccc(OC)c(OC)c1 | 9.05
O=C(N[C@@H](Cc1ccccc1)C(=O)OCc1ccccc1)c1nc[nH]c1C(=O)N[C@@H](Cc1ccccc1)C(=O)OCc1ccccc1 | 8.61
CC1(C)CC(=O)C(C2=NC3(CCCCC3)Cc3ccccc32)=C(O)C1 | -7.51
O=C(NCc1ccc(Cl)cc1)C(=O)NCC1OCCN1C(=O)c1ccc(Cl)cc1 (centres unmarked) | 14.6
C=CCN1C(=O)N(c2ccccc2)C(=O)C1CC(=O)Nc1ccc(OC)cc1 (centres unmarked) | 11.4
N/C(=N\NC(=O)c1cccs1)c1cc2cc(Cl)ccc2oc1=O | 8.82
Cc1sc(NC(=S)NC(=O)c2ccc(C(C)(C)C)cc2)c(C#N)c1C | 3.03
CCCCN(C(=O)c1oc2ccc(OCC)cc2c1C)c1c(N)n(CCCC)c(=O)[nH]c1=O | 10.2
Cc1c(O)nc(SCC(=O)Nc2nccs2)n(-c2ccccc2F)c1=O | 2.6
CC(C)Cn1c(N)c(C(=O)COC(=O)c2ccc(O)cc2O)c(=O)n(C)c1=O | 9.49
